Molecular target: T1, HLPPM19 (Trx-HLPPM19-ΔTM-His-Strep) (Candidatus Phytoplasma mali, UniProt A0A6B9D751)
T1 construct: N-terminally truncated, transmembrane region deleted; N-terminal Trx, C-terminal 6xHis and Strep tags kept; E. coli BL21(DE3); fusion 57 kDa
Format: biochemical
Conditions: binding: labelled compound 0.1 µM, protein 10 µM, 10 mM MgCl2, 1 mM ATP, pH 8.0, on ice; hydrolysis: Mg acetate, pH 7.5, rt

## Nc1nc2c(ncn2[C@@H]2O[C@H](COP(=O)(O)OP(=O)(O)OP(=O)(O)O)[C@@H](O)[C@H]2O)c(=O)[nH]1 [GTP]
  nitrocellulose spot binding of [α32P]GTP, phosphor imager; also TLC phosphate re: Trx-HLPPM19-ΔTM-His-Strep not only binds GTP but also hydrolyzes GTP, releasing monophosphate
